# Out of some 310,000 compounds screened, about 2,200 (0.71%) showed an effect of 50% or more. The effect is printed as a negative number. This is one part of the list.
# Biological target: human ether-à-go-go-related gene (hERG) potassium channel (human, UniProt Q12809)
# Assay: primary screen, population patch clamp on CHO cells stably expressing hERG
# Chain of human ether-à-go-go-related gene (hERG) potassium channel (Q12809 whole entry, looked up): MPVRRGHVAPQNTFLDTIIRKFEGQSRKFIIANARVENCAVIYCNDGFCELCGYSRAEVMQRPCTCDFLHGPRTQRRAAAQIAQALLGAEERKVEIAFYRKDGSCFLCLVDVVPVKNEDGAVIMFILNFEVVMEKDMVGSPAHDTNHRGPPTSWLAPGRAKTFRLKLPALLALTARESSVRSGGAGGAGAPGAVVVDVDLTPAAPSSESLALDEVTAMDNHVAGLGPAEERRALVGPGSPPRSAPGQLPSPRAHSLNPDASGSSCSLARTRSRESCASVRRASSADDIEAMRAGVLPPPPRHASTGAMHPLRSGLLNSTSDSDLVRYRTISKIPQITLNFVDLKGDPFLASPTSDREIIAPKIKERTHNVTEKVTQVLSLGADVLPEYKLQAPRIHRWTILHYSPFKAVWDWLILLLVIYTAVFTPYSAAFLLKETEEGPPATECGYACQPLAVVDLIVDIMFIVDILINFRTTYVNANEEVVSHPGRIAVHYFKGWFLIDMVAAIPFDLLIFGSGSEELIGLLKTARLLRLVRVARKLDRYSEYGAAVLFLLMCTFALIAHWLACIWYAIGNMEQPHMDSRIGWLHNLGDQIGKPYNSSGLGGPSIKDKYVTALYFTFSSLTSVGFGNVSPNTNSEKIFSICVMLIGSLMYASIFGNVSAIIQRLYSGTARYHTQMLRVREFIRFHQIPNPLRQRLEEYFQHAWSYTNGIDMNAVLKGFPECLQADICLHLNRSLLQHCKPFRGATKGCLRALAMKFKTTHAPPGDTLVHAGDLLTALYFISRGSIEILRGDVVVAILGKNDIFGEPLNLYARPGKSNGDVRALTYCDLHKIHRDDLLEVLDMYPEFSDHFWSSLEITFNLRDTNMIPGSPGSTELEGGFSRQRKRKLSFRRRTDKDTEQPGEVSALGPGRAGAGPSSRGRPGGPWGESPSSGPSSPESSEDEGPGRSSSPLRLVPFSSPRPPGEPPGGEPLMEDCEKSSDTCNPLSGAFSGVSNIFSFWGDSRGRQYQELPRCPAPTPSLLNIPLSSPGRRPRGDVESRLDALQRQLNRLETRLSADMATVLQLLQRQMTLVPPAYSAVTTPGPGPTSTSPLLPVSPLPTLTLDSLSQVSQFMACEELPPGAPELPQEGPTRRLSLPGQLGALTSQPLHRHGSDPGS
row,Compound,"hERG current change (%, negative = inhibition) at 1uM [%]"
1,Cc1ccc(C)c(Cn2c(=O)c3c(nc4n3CCN4Cc3ccco3)n(C)c2=O)c1,-0.256
2,O=CN1CCN(C(C(=O)NC2CCCCC2)c2ccc(Cl)cc2)CC1 (stereo not shown),-3.84
3,CCOC(=O)Cn1c(=NC(=O)CN2C(=O)CCC2=O)sc2cc(S(N)(=O)=O)ccc21,16.8
4,Cc1[nH]n(-c2ccccc2)c(=O)c1CCOC(=O)c1cccc(C(F)(F)F)c1,14.7
5,COc1ccc(NC(=S)NC2CCCC2)c(OC)c1,12.3
6,COC(=O)c1ccc(NC(=O)CCN2C(=O)NC(C)(C)C2=O)cc1,6.67
7,O=C(CCC(=O)N1CCOCC1)NCCc1ccccc1,8.81
8,CC1CCN(C(=O)CSc2nnc(-c3cccnc3)o2)CC1,11.1
9,Cc1ccc(S(=O)(=O)N2CCN(C(=O)COC(=O)CSc3ccccc3)CC2)c(C)c1,13.7
10,O=C(CN1CCCc2ccccc21)N/N=C/c1c(O)ccc2ccccc12,6.26
11,COc1cccc(-c2nc(CS(=O)(=O)CC(=O)N3CCCCC3)c(C)o2)c1,6.82
12,COc1cccc(/C=N/NC(=O)C(=O)N2CCCC2)c1O,1.73
13,COc1ccc(C2OC(=O)CC2C(=O)NCc2ccc(F)cc2)cc1OC (stereo not shown),5.36
14,CC(C)(C)OC(=O)NCCCCC1=CC2=CC(=O)C(C)(O)C(=O)C2=CO1 (stereo not shown),8.59
15,Cc1cc(C)cc(C(=O)NC(CC(N)=O)c2ccc(N3CCN(c4ccccc4)CC3)c([N+](=O)[O-])c2)c1 (stereo not shown),11.4
16,CCCSc1nc(-n2ncc(C#N)c2N)c2c3c(sc2n1)CCC(C)C3 (stereo not shown),6.14
17,CCN(CC)C(=O)CNC(=O)c1nn(-c2ccc(OC)c(Cl)c2)c(=O)c2ccccc12,11.4
18,Cc1ccc2c(c1)C(c1ccccc1)N(C(=O)c1ccccc1[N+](=O)[O-])CC(=O)N2 (stereo not shown),3.69
19,CCc1cc(CNC(=O)CC2C(=O)NCCN2Cc2c(F)cccc2Cl)on1 (stereo not shown),8.38
20,Cc1ccc(N/N=C(/Sc2nnnn2-c2ccccc2)C(=O)c2ccccc2)cc1,9.95
21,Cn1nc(-c2ccccc2F)c2cc(C(=O)N3CCN(C(=O)c4ccco4)CC3)sc21,-5.1
22,O=C1c2ccccc2N2C(=O)c3ccccc3C2N1O (stereo not shown),21.3

row,Compound,"hERG current change (%, negative = inhibition) at 1uM [%]"
1,O=C(c1ccc(S(=O)(=O)N2CCOCC2)cc1)N(c1ccc(F)cc1)C1C=CS(=O)(=O)C1 (stereo not shown),-2.37
2,COc1ccc(N(C)S(=O)(=O)c2cccc(C(=O)Nc3ccc(-n4cnnn4)cc3)c2)cc1,7.38
3,Cc1cc(Cl)ccc1NC(=O)CSc1n[nH]c(N)n1,11.1
4,COc1cc(/C=N/NC(=O)Cn2nc([N+](=O)[O-])cc2C)cc(Br)c1OCc1ccccc1,14.7
5,Cc1[nH]c2ccccc2c1CCN(Cc1cccs1)C(=S)Nc1ccccc1,16.8
6,OCCN(Cc1ccccc1)C(=S)Nc1ccc(F)cc1,13.5
7,CCCCOP(=O)(c1ccc(N(C)C)cc1)C(O)c1ccc(OC)cc1 (stereo not shown),-1.55
8,COC(=O)C1=C(C)N(c2ccccc2)/C(=C/c2cccs2)C1=O,10.9
9,CCOCCCNS(=O)(=O)c1ccc2c(c1)oc(=O)n2CC(=O)OCC,10.3
10,Cc1c(Cl)cccc1NC(=O)CSc1nncn1-c1ccccn1,15.8
11,Cc1ccccc1C(=O)NCC(=O)NNC(=S)NC(=O)c1ccccc1C,9.81
12,CN(C)/C=N/NC(=O)C1Cc2c(ccc3ccccc23)O1 (stereo not shown),7.51
13,COc1ccc(/C=N/NC(=O)c2[nH]nc3c2CCc2ccccc2-3)cc1OC,11.4
14,Cc1[nH][nH]c(=O)c1C=NCc1ccc(Cl)cc1,14.5
15,Clc1ccc(OCCCc2nc(-c3ccncc3)no2)c(Cl)c1,11.4
16,CC1(OC(=O)CCc2ccccc2)C(=O)C=C2C=C(c3ccc(C#N)cc3)N(C3CCCC3)C=C2C1=O (stereo not shown),7.68
17,COc1ccccc1C(=O)Nc1ccc(C2=NNC(=O)CC2C)cc1 (stereo not shown),12.7
18,O=C(CSc1nnc(NC(=O)C2CCC2)s1)Nc1ccccc1,13.3
19,Cc1nc2ccc3nc(NC(=O)C4COc5ccccc5O4)sc3c2s1 (stereo not shown),7.62
20,CC(=O)Nc1ccc(OC(=O)c2ccc(Br)c([N+](=O)[O-])c2)cc1,11.8
21,CCN1CCN(C(=O)c2ccc(COc3ccc(Cl)cc3)o2)CC1,-20
22,N#C/C(=C(/O)c1ccco1)c1nc2ccccc2s1,10.4

row,Compound,"hERG current change (%, negative = inhibition) at 1uM [%]"
1,CC(C)C(NC(=O)C(NC(=O)C1OC2OC(C)(C)OC2C2OC(C)(C)OC12)C(C)C)C(=O)O (stereo not shown),12.3
2,Cc1oc(-c2ccccc2Cl)nc1CS(=O)(=O)CC(=O)N1CCOCC1,-3.97
3,CCc1ccc(OCC(=O)NNC(=O)CNC(=O)c2ccc(Br)o2)cc1,4.23
4,Cc1ccccc1-n1c(SCC(=O)N2CCCCC2)nc(O)cc1=O,18.7
5,CC(NC(=O)c1ccccc1Br)C1CC2CCC1C2 (stereo not shown),12.6
6,O=C(NC1CCCCC1)c1ccc2snnc2c1,12.8
7,Cc1cccc(NC(=O)C2CCCC2)c1,4.32
8,CN(C)c1nc(OCCNC(=O)Nc2ccccc2)nc(N(C)C)n1,12.2
9,O=C(COC(=O)C1CC2C=CC1C2)NCc1ccc(F)cc1 (stereo not shown),9.12
10,Cc1nc(=O)c(-c2ccccc2)c(C)n1-c1ccccc1,16.6
11,Cc1ccc(NS(=O)(=O)c2ccc(OCC(=O)N3CCOCC3)cc2)cc1,3.02
12,COCCn1c(SCC(=O)Nc2nc(C)c(Cl)cc2Cl)nc2ccccc21,-0.266
13,CC1CCN(C(=O)N2c3ccccc3Sc3ccccc32)CC1,4.18
14,CC1CCCN(C(=O)c2ccc3c(c2NCCO)C(=O)c2ccccc2C3=O)C1 (stereo not shown),-2.57
15,Oc1ccccc1N1CCN(C(=S)NCCc2ccccc2)CC1,4.72
16,COc1cc(CCC(=O)Nc2cnc3ccccc3c2)cc(OC)c1OC,2.31
17,O=C(COC(=O)c1cccc(C(=O)OCC(=O)c2ccc(Br)cc2)n1)c1ccc(Br)cc1,6.91
18,CSCC[C@H](NC(=O)C1CCC(CNC(=O)[C@@H]2CCCN2C(=O)OC(C)(C)C)CC1)C(=O)O (stereo partly shown),4.54
19,CC(C)(C)Sc1ccc(N)nc1.Cl,10
20,O=C(Nc1ccsc1C(=O)NC1CCCCC1)c1ccccc1,11.3
21,CCC(C)N1C(=O)/C(=C\c2ccc(N3CCCCCC3)cc2)C(=O)NC1=S (stereo not shown),6.54
22,COc1cc(NC(=O)COC(=O)Cc2ccsc2)cc(OC)c1,7.2

row,Compound,"hERG current change (%, negative = inhibition) at 1uM [%]"
1,COc1ccc(C2(C)NC(=O)N(CC(=O)Nc3ccc4c(c3)OCO4)C2=O)cc1OC (stereo not shown),1.57
2,CC12CCC(=O)N1C(C(=O)N1CCN(S(=O)(=O)c3cccc(C(F)(F)F)c3)CC1)CS2 (stereo not shown),8.04
3,CC1CCC(NC(=O)CN2CCN(S(=O)(=O)c3cccs3)CC2)CC1 (stereo not shown),1.76
4,O=C(Nc1ccc(F)cc1)Nc1cc(OCC(F)(F)F)cc(OCC(F)(F)F)c1,6.79
5,O=C(NC1CCCCC1)C(c1cccnc1)N(C(=O)c1csnn1)c1ccccc1F (stereo not shown),11.6
6,CCN1CCCC(CO)(Cc2ccccc2)C1 (stereo not shown),4.17
7,Cc1ccc(C)c(NS(=O)(=O)c2c(C)[nH]c(C)c2C(=O)N2CCCCC2)c1,-4.64
8,Cc1cccc(C)c1OCc1n[nH]c(=S)n1N,14.4
9,Cc1cc(Cl)ccc1OC(C)C(=O)Nc1ccccc1N1CCOCC1 (stereo not shown),5.37
10,COc1ccc(Cn2cc([N+](=O)[O-])nc2C)cc1[N+](=O)[O-],10.3
11,Cc1ccc(S(=O)(=O)CCC(=O)Nc2nnc(-c3cccs3)o2)cc1,3.24
12,Cc1ccc2cc3cc(C(=O)N4CC(C)CC(C)C4)oc3nc2c1 (stereo not shown),1.87
13,CC(C)c1cc2cc3ccc(=O)oc3cc2o1,0.967
14,COCCn1c(-c2cccs2)csc1=Nc1cccnc1,6.96
15,Cc1ccc(NC(=O)COc2ccc(N3CC(C(N)=O)CC3=O)cc2)c(C)c1 (stereo not shown),13.5
16,O=C(COc1ccccc1)Nc1nc(-c2ccncc2)cs1,6.85
17,CC(CC(=O)N1CCN(S(=O)(=O)c2ccc([N+](=O)[O-])cc2)CC1)c1ccccc1 (stereo not shown),-50.3
18,COCCN(C(=O)COC(=O)c1cnc(C)cn1)c1c(N)n(Cc2ccccc2)c(=O)[nH]c1=O,6.64
19,COc1cccc(NC(=O)CSc2nnc(Cc3cccn3C)n2-c2ccc(F)cc2)c1,5.79
20,Clc1ncn(CCOc2ccccc2)c1Cl,12.4
21,O=C(Cn1cc(C(=O)c2ccco2)c2ccccc21)NC1CC1,11.4
22,CCCn1c(-c2ccncc2)n[nH]c1=S,8.8

# Reference: PMC4336329 (PLoS ONE, 2015)
